From PubChem BioAssay AID488969 (Vanderbilt High Throughput Screening Facility, 2010) come the findings set out here.

Whole data set: some 110,000 compounds, median “z-score” near -0.1, cut for the highest 2% near 2. Some of the results follow.

The target of the experiment is Metabotropic glutamate receptor 8 (Rattus norvegicus) (UniProt P70579). Description: rat mGluR8 modulators via GIRK flux, primary screen, cell-based, thallium flux, HTS (AID 488969). As to conditions: HEK293 rat mGluR8, GIRK (G protein-gated inwardly rectifying potassium channel) thallium flux, FluoZin2; at 10 µM; stronger effect = higher value.
UniProt P70579, sequence (P70579 whole entry, looked up): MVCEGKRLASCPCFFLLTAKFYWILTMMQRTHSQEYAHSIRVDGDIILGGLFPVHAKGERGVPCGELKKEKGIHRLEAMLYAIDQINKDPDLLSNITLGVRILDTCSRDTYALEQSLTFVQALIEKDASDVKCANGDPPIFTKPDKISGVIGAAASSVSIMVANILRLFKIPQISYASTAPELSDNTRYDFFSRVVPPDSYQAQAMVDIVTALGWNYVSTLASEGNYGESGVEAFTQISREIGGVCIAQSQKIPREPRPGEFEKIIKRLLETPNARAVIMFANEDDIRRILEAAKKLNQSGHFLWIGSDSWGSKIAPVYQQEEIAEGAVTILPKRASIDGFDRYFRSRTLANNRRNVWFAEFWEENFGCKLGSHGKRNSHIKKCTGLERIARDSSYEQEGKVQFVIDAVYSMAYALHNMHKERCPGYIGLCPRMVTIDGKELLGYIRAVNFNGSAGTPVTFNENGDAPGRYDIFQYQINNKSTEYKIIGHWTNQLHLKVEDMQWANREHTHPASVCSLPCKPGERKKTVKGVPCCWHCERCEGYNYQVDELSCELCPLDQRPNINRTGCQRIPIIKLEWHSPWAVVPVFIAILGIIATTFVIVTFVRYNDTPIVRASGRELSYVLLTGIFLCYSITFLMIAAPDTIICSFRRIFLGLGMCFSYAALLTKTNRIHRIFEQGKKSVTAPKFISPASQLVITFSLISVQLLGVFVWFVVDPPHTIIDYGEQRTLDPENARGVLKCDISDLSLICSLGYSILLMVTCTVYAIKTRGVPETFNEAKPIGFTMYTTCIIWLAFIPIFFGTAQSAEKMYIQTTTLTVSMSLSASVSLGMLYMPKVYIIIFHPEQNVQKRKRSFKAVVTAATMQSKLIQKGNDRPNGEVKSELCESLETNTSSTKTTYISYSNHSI
Molecule `Cc1cccc(C(=O)NC(Oc2ccccc2)C(Cl)(Cl)Cl)c1` (configuration not stated) registered a z-score of -0.253. `CCS(=O)(=O)NCc1nnc2n1-c1ccc(Cl)cc1C(c1ccccc1)=NC2` returned a z-score of -0.148. `O=C(COc1ccc2ccccc2c1)N1CCN(CC2CC3C=CC2C3)CC1` (configuration not stated): the z-score was 0.123. Turning to `CCC(=NCCOc1ccc(Cl)cc1)c1c(O)n(C)c(=O)n(C)c1=O`, the z-score is -0.392. In the case of `CC(C)Oc1ccc(CCN)cc1Cl` it was 0.137; in that of `CCC1CCCCN1CC(=O)c1ccc(OC(F)F)cc1` (configuration not stated), -0.381; in that of `Nc1nnc(CCN2CCCCC2)s1`, 0.564. In the case of `CCCCn1c(O)c(C(CC)=NCCN2CCCCC2)c(=O)[nH]c1=O` it was -1.26. On to `O=c1c(/C=N/N2CCOCC2)c(O)n(-c2ccccc2)c(=S)n1-c1ccccc1`, for which the z-score was 1.75. In the case of `O=c1c2cc(Cl)cc(Cl)c2nc(CN2CCOCC2)n1-c1ccccc1F` it was 0.342. `CCOC(=O)C1=C(C)OC(N)=C(C#N)C12C(=O)N(C)c1ccccc12` (configuration not stated) came in with a z-score of 0.0532. `NS(=O)(=O)c1ccc(N=Cc2c(O)n(C3CCCCC3)c(=O)n(C3CCCCC3)c2=O)cc1` showed a z-score of 0.651.

In the case of `CCOc1ccccc1NC(=O)N1CCC2(CC1)OCCO2`, the z-score is -0.318. As to `CCCCOc1ccc(CN2CCN(CCO)CC2)cc1`, the z-score is -0.357. In turn, `COP(=O)(OC)C1(Nc2ccc(C)cc2)CCCCC1` displayed a z-score of 0.118. The molecule `COc1ccc2c(c1)c(C(=O)CN1CCC3(CC1)OCCO3)c(C)n2Cc1ccccc1` registered a z-score of -0.618. In turn, `CCC(C)N1Cc2ccccc2C1=N` (configuration not stated) yielded a z-score of -0.00471. `C=CCN1C(=O)C2(C(C(=O)OCC)=C(N)Oc3ccccc32)c2c1c1ccccc1oc2=O` (configuration not stated) had a z-score of -0.513.

With `Cc1cccc(N2C(=O)NC(=O)/C(=C/c3ccc([N+](=O)[O-])o3)C2=O)c1`, the z-score was -0.279. Molecule `Cc1cccnc1-n1c(C)nc2ccccc2c1=O` gave a z-score of 0.284. As to `Cc1nc2ccccc2c(=O)n1-c1cccc(O)c1`, the z-score was 0.425. In turn, `ON1C2CCCCC2N(O)C1c1ccccc1F` (configuration not stated) had a z-score of 0.451. Then `Cn1cccc1/C=C1\C(=O)NC(=O)N(CCC2=CCCCC2)C1=O`, with -0.117. As to `CCCCC(=O)N/N=C/c1c(O)n(CC)c(=S)[nH]c1=O`, the z-score was 0.0587.

`CN1C(=O)C(=CN2CCN(C(=O)c3ccco3)CC2)C(=O)N(C)C1=S` returned a z-score of -0.612. `CSc1ncc(/C=C2/C(=O)NC(=O)N(C3CCCCC3)C2=O)cn1` returned a z-score of -0.17. In turn, `O=c1c2ccccc2nc(-c2ccoc2)n1-c1ccccc1` came in with a z-score of -0.526. On to `COC(=O)C(O)(c1ccc(NC(=O)Oc2ccccc2)cc1)C(F)(F)F` (configuration not stated), for which the z-score came to 0.925. In the case of `CN(C)C(=O)Nc1cccc(OC(=O)N(C)C)c1` it was 0.313; in that of `CC(Cc1ccccc1Sc1ccccc1O)N(C)C` (configuration not stated), 0.996; in that of `COc1ccc(CC[n+]2cc(/N=C(\C)[O-])on2)cc1OC`, 1.18. In the case of `COc1cc(Cn2c(N)c(C(=O)NCc3ccco3)c3nc4ccccc4nc32)cc(OC)c1OC` it was -0.195; in that of `CC(C(=O)N1CCC2(CC1)OCCO2)C1Sc2ccccc2NC1=O` (configuration not stated), 0.0805; in that of `COc1cc(N2CCOCC2)ccc1C=C1C(=O)NC(=O)NC1=O`, -0.374. Consider `COc1ccc(N2CCN(C(CNC(=O)Oc3ccccc3)c3cccnc3)CC2)cc1` (configuration not stated), for which the z-score amounted to 0.515. Take `O=C(NCc1ccc(C(=O)N2CCC3(CC2)OCCO3)cc1)c1cccc(Br)c1`: the z-score was -0.0131. `O=C(CCNS(=O)(=O)c1ccccc1)Nc1ccc(Cl)cc1C(=O)c1ccccc1` displayed a z-score of -2.06. `Clc1ccc(C2N3CCCN23)c(Cl)c1` (configuration not stated) came in with a z-score of -0.425.

Consider `Cc1cc(C)c(-n2c(O)c(/C=N/N3CCCCC3c3cccnc3)c(=O)[nH]c2=O)c(C)c1` (configuration not stated), for which the z-score is -0.531. Molecule `O=P(OCC(F)(F)C(F)F)(N1CCCCC1)N1CCCCC1` had a z-score of -0.0155.

As for `Cc1cc(/C=C2\C(=O)NC(=O)N(C)C2=O)c(C)n1-c1ccc2c(c1)OCO2`, the z-score is -0.21.

Regarding `CC(C)(C)OC(=O)c1c(N)n(Cc2ccco2)c2nc3ccccc3nc12`, the z-score was -2.21.

`CCC(C)n1c(O)c(C(c2ccccn2)c2c(O)n(C(C)CC)c(=S)[nH]c2=O)c(=O)[nH]c1=S` (configuration not stated) had a z-score of -0.115.

Take `CCCn1ncc(C(=O)O)c1C`: the z-score amounted to 0.266. Then `COc1nc(NC(C)C)nc(NC(C)C)n1`, with 0.518; and `Nc1cc(N2CCNCC2)c([N+](=O)[O-])cc1Cl`, with -0.00369; and `CC(C)CC(=O)NC(Oc1ccc(Cl)cc1)C(Cl)(Cl)Cl` (configuration not stated), with -0.379.

The molecule `COc1ccc(-n2c(O)c(C(C)=NCCCn3ccnc3)c(=O)[nH]c2=O)cc1` came in with a z-score of -0.0269.

`CC(C)CCNC(=O)c1c(N)n(CC2CCCO2)c2nc3ccccc3nc12` (configuration not stated): the z-score is 0.063. In turn, `Cc1nc2ccccc2c(=O)n1-c1ccccc1C(F)(F)F` returned a z-score of 0.226.

Molecule `Clc1ccc2c(N3CCNCC3)ccnc2c1` displayed a z-score of 0.404. `Cc1ccc(N)c(C(=O)c2ccccc2)c1` returned a z-score of -0.804.

`Cc1cc(C)cc(N2C(=O)NC(=O)/C(=C\c3cccn3-c3ccc(Cl)cc3)C2=O)c1`: the z-score stood at 0.182. Molecule `Cc1nc2cc(C(=O)N3CCC4(CC3)OCCO4)ccc2n1-c1cccc(F)c1` yielded a z-score of -0.389.

In turn, `Cc1ccc(N=Nc2c(O)[nH]c(=O)[nH]c2=O)c([N+](=O)[O-])c1` showed a z-score of -0.78. The molecule `Nc1c(C(=O)NCCCc2ccccc2)c2nc3ccccc3nc2n1Cc1cccs1` registered a z-score of 0.264. Consider `Cc1nnc2ccc(N3CCN(C)CC3)nn12`, for which the z-score turned out to be 0.579. In the case of `COP(=O)(CC(=O)O)c1ccccc1` (configuration not stated) it was 0.3. `CCN(CC)CCCN=C(C)c1c(O)n(-c2ccc(C)cc2)c(=O)[nH]c1=O` displayed a z-score of -0.346.

The molecule `CC(C)N1C(=O)CC2(CC[N+](C)(CCOC(=O)C(O)(c3ccccc3)c3ccccc3)CC2)C1=O` (configuration not stated) registered a z-score of -0.0577. Then `O=[N+]([O-])c1ccc(N2CCNCC2)cc1NCc1ccco1`, with 0.514; and `COc1ccccc1NC1=NCCS1`, with -0.101. Regarding `CC(C)(C)N1Cc2ccccc2C1=N`, the z-score was -0.0341. With `O=c1[nH]c(=S)n(C2CC2)c(O)c1/C=N/N1CCOCC1`, the z-score was -0.0931.

The molecule `Cc1nn(Cc2ccc(Cl)cc2Cl)c(Cl)c1C(=O)NC1CCCc2ccccc21` (configuration not stated) yielded a z-score of -0.109. In turn, `COc1ccc(Cn2c(N)c(C(=O)NCc3ccco3)c3nc4ccccc4nc32)cc1` came in with a z-score of 0.71. For the molecule `Cc1cnn(C2CCN(C)CC2)c1N`, the z-score was 0.0341. Molecule `CCc1cccc(CC)c1NC(=S)N1CC2CC(C1)c1cccc(=O)n1C2` (configuration not stated) displayed a z-score of 0.0803.

The molecule `Cc1ccc(NC(=O)CN2C(=O)CN=C(c3ccccc3)c3cc(Cl)ccc32)cc1` came in with a z-score of 0.419.

For the molecule `CCN(CC)c1ccc(/C=N/c2sc3c(c2C#N)C2CCN3CC2)c(O)c1`, the z-score turned out to be 0.201. In the case of `CN1CCN(c2cc(N3CCCC3)c([N+](=O)[O-])cc2F)CC1` it was -0.391; in that of `CC(NC(=O)Oc1ccccc1)C(c1cccs1)N1CCOCC1` (configuration not stated), -0.0704.
